{"source": "paper PMC4336329", "about": "(PLoS ONE, 2015)", "note": "Screen size: about 310,000 compounds; about 2,200 (0.71%) showed an effect of 50% or more. Effects have a minus sign here. The list shows a part of the results."}
{"target": "human ether-à-go-go-related gene (hERG) potassium channel (human, UniProt Q12809)", "sequence (Q12809 whole entry, looked up)": "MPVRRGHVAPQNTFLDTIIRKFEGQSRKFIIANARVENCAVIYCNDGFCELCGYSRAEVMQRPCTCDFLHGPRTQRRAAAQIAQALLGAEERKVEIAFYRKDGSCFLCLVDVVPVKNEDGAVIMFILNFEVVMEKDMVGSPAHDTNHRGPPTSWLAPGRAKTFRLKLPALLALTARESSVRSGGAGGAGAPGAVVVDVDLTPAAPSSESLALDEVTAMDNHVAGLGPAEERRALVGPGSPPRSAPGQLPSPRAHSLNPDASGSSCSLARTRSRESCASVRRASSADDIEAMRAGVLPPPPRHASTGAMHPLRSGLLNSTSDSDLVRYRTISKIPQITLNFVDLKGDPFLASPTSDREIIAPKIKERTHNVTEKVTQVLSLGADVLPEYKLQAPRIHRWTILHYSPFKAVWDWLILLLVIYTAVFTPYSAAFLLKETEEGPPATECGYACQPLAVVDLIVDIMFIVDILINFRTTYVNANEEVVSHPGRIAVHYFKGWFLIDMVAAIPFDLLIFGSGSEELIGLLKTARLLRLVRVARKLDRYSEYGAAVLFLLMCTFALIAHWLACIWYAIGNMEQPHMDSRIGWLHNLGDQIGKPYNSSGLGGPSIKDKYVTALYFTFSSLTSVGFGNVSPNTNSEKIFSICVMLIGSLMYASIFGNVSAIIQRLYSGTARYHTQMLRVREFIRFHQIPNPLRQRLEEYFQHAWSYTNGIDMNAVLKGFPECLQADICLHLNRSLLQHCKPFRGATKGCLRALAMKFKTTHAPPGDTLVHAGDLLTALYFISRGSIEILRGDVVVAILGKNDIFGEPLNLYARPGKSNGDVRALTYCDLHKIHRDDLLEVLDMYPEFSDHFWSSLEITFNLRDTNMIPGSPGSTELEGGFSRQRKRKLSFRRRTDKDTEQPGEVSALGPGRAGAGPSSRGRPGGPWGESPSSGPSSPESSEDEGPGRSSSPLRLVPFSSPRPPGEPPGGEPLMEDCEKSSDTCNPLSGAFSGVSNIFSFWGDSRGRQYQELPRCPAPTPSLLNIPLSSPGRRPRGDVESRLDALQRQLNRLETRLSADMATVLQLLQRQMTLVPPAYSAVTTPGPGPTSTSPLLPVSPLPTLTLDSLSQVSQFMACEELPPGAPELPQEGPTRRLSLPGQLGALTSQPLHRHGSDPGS", "experiment": "primary screen, population patch clamp on CHO cells stably expressing hERG", "units": {"hERG current change (%, negative = inhibition) at 1uM": "%"}}
{"smiles": "O=C(CN(Cc1ccc(F)cc1)C(=O)c1csnn1)NCc1ccc2c(c1)OCO2", "hERG current change (%, negative = inhibition) at 1uM": -8.89}
{"smiles": "CN1C(=O)C(=Cc2ccc(N3CCCCCC3)o2)C(=O)N(C)C1=S", "hERG current change (%, negative = inhibition) at 1uM": 19.9}
{"smiles": "O=C(Nc1c(C(=O)N2CCOCC2)cnn1-c1ccccc1)c1cccc(F)c1", "hERG current change (%, negative = inhibition) at 1uM": 4.72}
{"smiles": "O=C/C(=C\\Nc1ccc(C(=O)N2CCOCC2)cc1)c1nc2ccccc2o1", "hERG current change (%, negative = inhibition) at 1uM": 2.18}
{"smiles": "COc1ccc(CN2CCCC(C(=O)c3cccc(C(F)(F)F)c3)C2)cc1O", "note": "(stereo not drawn)", "hERG current change (%, negative = inhibition) at 1uM": -6.2}
{"smiles": "CCOC(=O)N1CCN(C(=O)c2ccc(C)c(S(=O)(=O)Nc3cccc(C)c3C)c2)CC1", "hERG current change (%, negative = inhibition) at 1uM": -13.5}
{"smiles": "CCN(CC)S(=O)(=O)c1ccc(Cl)c(NC(=O)COC(=O)c2ccc([N+](=O)[O-])o2)c1", "hERG current change (%, negative = inhibition) at 1uM": 5.15}
{"smiles": "Cc1ccc(-c2c(C#N)c(N)nc3c2CCCCC3)cc1", "hERG current change (%, negative = inhibition) at 1uM": 14}
{"smiles": "CSc1nsc(NC(=O)OCc2ccc(Cl)cc2)n1", "hERG current change (%, negative = inhibition) at 1uM": 15.1}
{"smiles": "COc1cccc(CNS(=O)(=O)c2ccc(S(=O)(=O)N3CCCC3)cc2)c1", "hERG current change (%, negative = inhibition) at 1uM": 11.5}
{"smiles": "COC(=O)n1c(=O)oc2ccccc21", "hERG current change (%, negative = inhibition) at 1uM": 5.88}
{"smiles": "CN(C)c1nc(Nc2ccccc2)nc(N(C)C)n1", "hERG current change (%, negative = inhibition) at 1uM": 14.3}
{"smiles": "COc1ccccc1CC(=O)Nc1cccc2ccccc12", "hERG current change (%, negative = inhibition) at 1uM": 13.7}
{"smiles": "COc1cccc2cc(C(=O)NCc3ccc(C)cc3)c(=O)oc12", "hERG current change (%, negative = inhibition) at 1uM": 18.8}
{"smiles": "O=C(CNC(=O)N1CC(=O)Nc2ccccc21)Nc1ccc(Cl)cc1", "hERG current change (%, negative = inhibition) at 1uM": 13.4}
{"smiles": "Cc1ccc(S(=O)(=O)N2CCCCC2)cc1NC(=O)c1ccc2c(c1)OCO2", "hERG current change (%, negative = inhibition) at 1uM": 7.98}
{"smiles": "CCOc1ccc2sc(NS(=O)(=O)c3ccc(OC)c(OC)c3)nc2c1", "hERG current change (%, negative = inhibition) at 1uM": 11.1}
{"smiles": "Cc1cc2c(c(=O)n1Cc1ccco1)C(c1cccnc1)C(C#N)=C(N)O2", "note": "(stereo not drawn)", "hERG current change (%, negative = inhibition) at 1uM": 1.21}
{"smiles": "Cn1c(=O)c(C(=O)NCc2ccc(Cl)cc2)c(O)c2ccccc21", "hERG current change (%, negative = inhibition) at 1uM": 8.26}
{"smiles": "Cc1ccc(C)c(S(=O)(=O)N2CCCOC2CNC(=O)C(=O)NCc2cccs2)c1", "note": "(stereo not drawn)", "hERG current change (%, negative = inhibition) at 1uM": 6.83}
{"smiles": "CCC[C@H]1COCCS(=O)(=O)N1Cc1ccccc1F", "hERG current change (%, negative = inhibition) at 1uM": 1.36}
{"smiles": "Cc1ccccc1C(=O)N/N=C/c1ccc([N+](=O)[O-])s1", "hERG current change (%, negative = inhibition) at 1uM": 7.39}
{"smiles": "CCCc1cc(=O)n2[nH]cnc2n1", "hERG current change (%, negative = inhibition) at 1uM": -5.89}
{"smiles": "CS(=O)(=O)N1CCc2cc(C(=O)N3CCCCC3)ccc21", "hERG current change (%, negative = inhibition) at 1uM": 9.8}
{"smiles": "COc1ccc(C2c3[nH]c4ccccc4c3C[C@H]3C(=O)N(CCCO)CC(=O)N23)cc1OC", "note": "(stereo partly drawn)", "hERG current change (%, negative = inhibition) at 1uM": 12.8}
{"smiles": "COc1ccccc1OCC(=O)Nc1ccccc1C(=O)NC1CC1", "hERG current change (%, negative = inhibition) at 1uM": 1.98}
{"smiles": "CCC(COC(=O)c1cc(OC)c(OC)c(OC)c1)(c1ccccc1)N(C)C.O=C(O)/C=C\\C(=O)O", "note": "(stereo not drawn)", "hERG current change (%, negative = inhibition) at 1uM": 11.9}
{"smiles": "Cc1cc(C(=O)CN2C(=O)C(=O)N(C)C2=O)c(C)n1-c1cccc(S(=O)(=O)N2CCOCC2)c1", "hERG current change (%, negative = inhibition) at 1uM": -5.77}
{"smiles": "CC(=O)Nc1ccc(S(=O)(=O)NNC(=O)CCC(=O)Nc2cc(C)ccc2C)cc1", "hERG current change (%, negative = inhibition) at 1uM": 7.67}
{"smiles": "CC1=C/C(=N\\NC(=O)c2ccc(O)cc2)CC1", "hERG current change (%, negative = inhibition) at 1uM": 12.5}
{"smiles": "O=C(NC(=S)NNC(=O)c1ccc(Cl)cc1Cl)c1cccnc1", "hERG current change (%, negative = inhibition) at 1uM": 7.07}
{"smiles": "O=[N+]([O-])c1cc(Br)cc(C=Nc2ccc3c(c2)OCO3)c1O", "hERG current change (%, negative = inhibition) at 1uM": 12.5}
{"smiles": "CC12CCC(=O)N1C(C(=O)N1CCN(S(=O)(=O)c3ccc(Br)cc3Cl)CC1)CS2", "note": "(stereo not drawn)", "hERG current change (%, negative = inhibition) at 1uM": 8.34}
{"smiles": "CCOc1ccc(NC(=O)C(C)Sc2nccn2C)cc1", "note": "(stereo not drawn)", "hERG current change (%, negative = inhibition) at 1uM": 14.1}
{"smiles": "CC1(C(=O)O)CCC(C(=O)Nc2ccc(S(N)(=O)=O)cc2)C1(C)C", "note": "(stereo not drawn)", "hERG current change (%, negative = inhibition) at 1uM": 12.6}
{"smiles": "O=C(Nc1ccc([N+](=O)[O-])c(NC(=O)c2cccnc2)c1)c1cccnc1", "hERG current change (%, negative = inhibition) at 1uM": 11.5}
{"smiles": "O=C1CC(SCCc2nc3ccccc3[nH]2)C(=O)N1c1ccc(Cl)cc1", "note": "(stereo not drawn)", "hERG current change (%, negative = inhibition) at 1uM": -11.7}
{"smiles": "O=C(COC(=O)C1=NN(c2ccccc2)C(=O)CC1)NCc1ccccc1Cl", "hERG current change (%, negative = inhibition) at 1uM": -3.73}
{"smiles": "OCc1cccc(Nc2ncnc3sc4c(c23)CCCCC4)c1", "hERG current change (%, negative = inhibition) at 1uM": 8.82}
{"smiles": "CC(C)Cc1ccc(CN2CCCC(NC(=O)CCn3cnnn3)C2)cc1", "note": "(stereo not drawn)", "hERG current change (%, negative = inhibition) at 1uM": -6.73}
{"smiles": "COc1ccc(S(=O)(=O)NCc2csc(C)n2)cc1", "hERG current change (%, negative = inhibition) at 1uM": 8.53}
{"smiles": "CCCCCC(=O)NC(Cc1ccc(OC)c([N+](=O)[O-])c1)C(=O)O", "note": "(stereo not drawn)", "hERG current change (%, negative = inhibition) at 1uM": 13.6}
{"smiles": "COc1ccc(-n2c(C)nc(N)c2C(=O)c2ccccc2)cc1", "hERG current change (%, negative = inhibition) at 1uM": 0.326}
{"smiles": "CCCc1ccc2oc(C(=O)N3CCNC(=O)C3CC(=O)OC)c(C)c2c1", "note": "(stereo not drawn)", "hERG current change (%, negative = inhibition) at 1uM": 13}
{"smiles": "Cc1ccc(NS(=O)(=O)c2ccc(C(=O)N3CCCCCCC3)cc2)cc1", "hERG current change (%, negative = inhibition) at 1uM": 20.5}
{"smiles": "CC1CCCCC1NC(=O)C1CC=CCC1C(=O)O", "note": "(stereo not drawn)", "hERG current change (%, negative = inhibition) at 1uM": 13.9}
{"smiles": "CC(=O)Cc1nsc(NC(=O)c2cccs2)n1", "hERG current change (%, negative = inhibition) at 1uM": 12.7}
{"smiles": "CSCCNC(=O)c1ccc(OC2CCN(CCc3ccccc3)CC2)cc1", "hERG current change (%, negative = inhibition) at 1uM": -14.5}
{"smiles": "Cc1cc(S(=O)(=O)N2CCN(C(=O)c3ccco3)CC2)ccc1F", "hERG current change (%, negative = inhibition) at 1uM": 7.78}
{"smiles": "Cc1ccc(C)c(S(=O)(=O)N2CCCC2CNC(=O)C(=O)NCC2CCCO2)c1", "note": "(stereo not drawn)", "hERG current change (%, negative = inhibition) at 1uM": 1.65}
{"smiles": "COc1ccc(C(=O)/C=C/Nc2ccccn2)c(OC)c1", "hERG current change (%, negative = inhibition) at 1uM": 13.6}
{"smiles": "CCOC(=O)C(=O)N1CCN(c2nc(-c3ccc(Cl)cc3)cs2)CC1", "hERG current change (%, negative = inhibition) at 1uM": 6.6}
{"smiles": "CS(=O)(=O)N(CC(=O)NCCSc1ccccn1)c1cccc2ccccc12", "hERG current change (%, negative = inhibition) at 1uM": -1.54}
{"smiles": "Cc1ccc2c(=O)[nH]c(Nc3nc(C)cc(-c4ccccc4)n3)nc2c1", "hERG current change (%, negative = inhibition) at 1uM": 11.8}
{"smiles": "CCn1c(=S)sc2c(=O)n(CC(=O)Nc3cccc(Br)c3)c(C)nc21", "hERG current change (%, negative = inhibition) at 1uM": 9.24}
{"smiles": "Cc1cc(C(=O)N2CCN(c3ncccc3C#N)CC2)no1", "hERG current change (%, negative = inhibition) at 1uM": 5.86}
{"smiles": "Cc1ccccc1Nc1nc(N)nc(CN2CCN(c3ccccn3)CC2)n1", "hERG current change (%, negative = inhibition) at 1uM": -24.7}
